# Assay results: the supplement of paper PMC8728848
# This is one part of the list.
# B1: SalT (Orysata sativa) (protein)
# chain: MTLVKIGLWGGNGGSAQDISVPPKKLLGVTIYSSDAIRSIAFNYIGVDGQEYAIGPWGGGEGTSTEIKLGSSEHIKEISGTHGPVYDLADIVTYLKIVTSANNTYEAGVPNGKEFSIPLQDSGHVVGFFGRSGTLIDAIGIYVHPILEQKLISEEDLNSAVDHHHHHH
# How the values were obtained:
# Experiment in all cases: glycan array binding signal (z-score within array); higher = stronger binding
# Details in all cases: glycan notation: IUPAC condensed, linker removed
# [1] = target: GlcNAc(a1-4)Gal(b1-4)GlcNAc(b1-3)Gal(b1-4)GlcNAc(b1-3)Gal(b1-4)GlcNAc
# Outline: (§1)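 Columns mapping to the same glycan were averaged after glycan names were converted to IUPAC-condensed notation. The data come from 3228 arrays in the Consortium for Functional Glycomics database, limited to those with an available protein sequence. Binding is reported as a within-array Z-score averaged across arrays of one protein sequence and across linkers.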
# [2] = target: GlcNAc(a1-4)Gal(b1-4)GlcNAc(b1-3)Gal(b1-4)[Fuc(a1-3)]GlcNAc(b1-3)Gal(b1-4)[Fuc(a1-3)]GlcNAc
# Outline: as §1
# [3] = target: GlcNAc(a1-6)Gal(b1-4)GlcNAc
# Outline: as §1
# [4] = target: GlcNAc(b1-2)Gal(b1-3)GalNAc
# Outline: as §1
# [5] = target: GlcNAc(b1-2)Man(a1-3)[GlcNAc(b1-2)Man(a1-6)]Man(b1-4)GlcNAc(b1-4)GlcNAc
# Outline: as §1
# [6] = target: GlcNAc(b1-2)Man(a1-3)[GlcNAc(b1-2)Man(a1-6)]Man(b1-4)GlcNAc(b1-4)[Fuc(a1-6)]GlcNAc
# Outline: as §1
# [7] = target: GlcNAc(b1-2)Man(a1-3)[GlcNAc(b1-4)][GlcNAc(b1-2)Man(a1-6)]Man(b1-4)GlcNAc(b1-4)GlcNAc
# Outline: as §1
# [8] = target: GlcNAc(b1-2)[GlcNAc(b1-4)]Man(a1-3)[GlcNAc(b1-2)Man(a1-6)]Man(b1-4)GlcNAc(b1-4)GlcNAc
# Outline: as §1
# [9] = target: GlcNAc(b1-2)[GlcNAc(b1-4)]Man(a1-3)[GlcNAc(b1-4)][GlcNAc(b1-2)Man(a1-6)]Man(b1-4)GlcNAc(b1-4)GlcNAc
# Outline: as §1
# [10] = target: GlcNAc(b1-2)[GlcNAc(b1-4)]Man(a1-3)[GlcNAc(b1-4)][GlcNAc(b1-2)[GlcNAc(b1-6)]Man(a1-6)]Man(b1-4)GlcNAc(b1-4)GlcNAc
# Outline: as §1
# [11] = target: GlcNAc(b1-2)[GlcNAc(b1-4)]Man(a1-3)[GlcNAc(b1-4)][GlcNAc(b1-2)[GlcNAc(b1-6)]Man(a1-6)]Man(b1-4)GlcNAc(b1-4)[Fuc(a1-6)]GlcNAc
# Outline: as §1
# [12] = target: GlcNAc(b1-2)[GlcNAc(b1-6)]Man(a1-6)[GlcNAc(b1-2)Man(a1-3)]Man(b1-4)GlcNAc(b1-4)GlcNAc
# Outline: as §1
# [13] = target: GlcNAc(b1-2)[GlcNAc(b1-6)]Man(a1-6)[GlcNAc(b1-2)Man(a1-3)]Man(b1-4)GlcNAc(b1-4)[Fuc(a1-6)]GlcNAc
# Outline: as §1
# [14] = target: GlcNAc(b1-2)[GlcNAc(b1-6)]Man(a1-6)[GlcNAc(b1-2)Man(a1-3)][GlcNAc(b1-4)]Man(b1-4)GlcNAc(b1-4)GlcNAc
# Outline: as §1
# [15] = target: GlcNAc(b1-3)Gal
# Outline: as §1
# [16] = target: GlcNAc(b1-3)Gal(b1-3)GalNAc
# Outline: as §1
# [17] = target: GlcNAc(b1-3)Gal(b1-4)Glc
# Outline: as §1
# [18] = target: GlcNAc(b1-3)Gal(b1-4)GlcNAc
# Outline: as §1
# [19] = target: GlcNAc(b1-3)Gal(b1-4)GlcNAc(b1-3)Gal(b1-4)GlcNAc
# Outline: as §1
# [20] = target: GlcNAc(b1-3)GalNAc
# Outline: as §1
# [21] = target: GlcNAc(b1-3)Man
# Outline: as §1
# [22] = target: GlcNAc(b1-3)[GlcNAc(b1-4)][GlcNAc(b1-6)]GlcNAc
# Outline: as §1
# [23] = target: GlcNAc(b1-3)[GlcNAc(b1-6)]Gal(b1-4)GlcNAc
# Outline: as §1
# [24] = target: GlcNAc(b1-3)[GlcNAc(b1-6)]GalNAc
# Outline: as §1
# [25] = target: GlcNAc(b1-4)Gal(b1-4)GlcNAc
# Outline: as §1
# [26] = target: GlcNAc(b1-4)GlcNAc
# Outline: as §1
# [27] = target: GlcNAc(b1-4)GlcNAc(b1-4)GlcNAc
# Outline: as §1
# [28] = target: GlcNAc(b1-4)GlcNAc(b1-4)GlcNAc(b1-4)GlcNAc(b1-4)GlcNAc
# Outline: as §1
# [29] = target: GlcNAc(b1-4)GlcNAc(b1-4)GlcNAc(b1-4)GlcNAc(b1-4)GlcNAc(b1-4)GlcNAc
# Outline: as §1
# [30] = target: GlcNAc(b1-4)[GlcNAc(b1-6)]GalNAc
# Outline: as §1
# [31] = target: GlcNAc(b1-6)Gal(b1-4)GlcNAc
# Outline: as §1
# [32] = target: GlcNAc(b1-6)GalNAc
# Outline: as §1
# [33] = target: GlcNAc3Prop(b1-4)GlcNAc
# Outline: as §1
# [34] = target: GlcNAc6S(b1-3)Gal(b1-4)GlcNAc
# Outline: as §1
# [35] = target: Kdn(a2-3)Gal(b1-3)GalNAc
# Outline: as §1
# [36] = target: Kdn(a2-3)Gal(b1-3)GlcNAc
# Outline: as §1
# [37] = target: Kdn(a2-3)Gal(b1-4)Glc
# Outline: as §1
# [38] = target: Kdn(a2-3)Gal(b1-4)GlcNAc
# Outline: as §1
# [39] = target: Kdn(a2-3)Gal(b1-4)[Fuc(a1-3)]GlcNAc
# Outline: as §1
# [40] = target: Kdn(a2-6)Gal(b1-4)GlcNAc
# Outline: as §1
# [41] = target: Man(a1-2)Man(a1-2)Man(a1-3)Man
# Outline: as §1
# [42] = target: Man(a1-2)Man(a1-2)Man(a1-6)[Man(a1-3)]Man
# Outline: as §1
# [43] = target: Man(a1-2)Man(a1-3)Man
# Outline: as §1
# [44] = target: Man(a1-2)Man(a1-3)[Man(a1-2)Man(a1-6)]Man
# Outline: as §1
# [45] = target: Man(a1-2)Man(a1-3)[Man(a1-2)Man(a1-6)]Man(a1-6)[Man(a1-2)Man(a1-2)Man(a1-3)]Man
# Outline: as §1
binder,measurement,setting,value
B1,glycan array binding signal (z-score),[1],-0.307
same,glycan array binding signal (z-score),[2],-0.206
same,glycan array binding signal (z-score),[3],-0.301
same,glycan array binding signal (z-score),[4],-0.302
same,glycan array binding signal (z-score),[5],4.06
same,glycan array binding signal (z-score),[6],0.913
same,glycan array binding signal (z-score),[7],-0.002
same,glycan array binding signal (z-score),[8],-0.303
same,glycan array binding signal (z-score),[9],-0.307
same,glycan array binding signal (z-score),[10],-0.311
same,glycan array binding signal (z-score),[11],-0.308
same,glycan array binding signal (z-score),[12],2.4
same,glycan array binding signal (z-score),[13],0.996
same,glycan array binding signal (z-score),[14],-0.04
same,glycan array binding signal (z-score),[15],-0.308
same,glycan array binding signal (z-score),[16],-0.307
same,glycan array binding signal (z-score),[17],-0.308
same,glycan array binding signal (z-score),[18],-0.305
same,glycan array binding signal (z-score),[19],-0.305
same,glycan array binding signal (z-score),[20],-0.309
same,glycan array binding signal (z-score),[21],-0.302
same,glycan array binding signal (z-score),[22],-0.308
same,glycan array binding signal (z-score),[23],-0.31
same,glycan array binding signal (z-score),[24],-0.309
same,glycan array binding signal (z-score),[25],-0.307
same,glycan array binding signal (z-score),[26],-0.308
same,glycan array binding signal (z-score),[27],-0.311
same,glycan array binding signal (z-score),[28],-0.309
same,glycan array binding signal (z-score),[29],-0.311
same,glycan array binding signal (z-score),[30],-0.309
same,glycan array binding signal (z-score),[31],-0.306
same,glycan array binding signal (z-score),[32],-0.309
same,glycan array binding signal (z-score),[33],-0.309
same,glycan array binding signal (z-score),[34],-0.308
same,glycan array binding signal (z-score),[35],-0.211
same,glycan array binding signal (z-score),[36],-0.306
same,glycan array binding signal (z-score),[37],-0.306
same,glycan array binding signal (z-score),[38],-0.309
same,glycan array binding signal (z-score),[39],-0.302
same,glycan array binding signal (z-score),[40],-0.31
same,glycan array binding signal (z-score),[41],-0.3
same,glycan array binding signal (z-score),[42],-0.294
same,glycan array binding signal (z-score),[43],-0.307
same,glycan array binding signal (z-score),[44],-0.295
same,glycan array binding signal (z-score),[45],-0.304
